Test results taken from PubChem BioAssay AID488969 (Vanderbilt High Throughput Screening Facility, 2010).
Whole data set: some 110,000 compounds, median “z-score” near -0.1, cut for the highest 2% near 2. Some of the results follow.

These compounds were tested against Metabotropic glutamate receptor 8 (Rattus norvegicus) (UniProt P70579) (assay: mGluR8 Gi/Go-coupled signaling modulation – cell-based, rat, thallium flux, HTS, primary screen (AID 488969)). Conditions: HEK293 rat mGluR8, GIRK (G protein-gated inwardly rectifying potassium channel) thallium flux, FluoZin2; at 10 µM; stronger effect = higher value; submaximal glutamate (EC20) added with thallium.
UniProt P70579, sequence (P70579 whole entry, looked up): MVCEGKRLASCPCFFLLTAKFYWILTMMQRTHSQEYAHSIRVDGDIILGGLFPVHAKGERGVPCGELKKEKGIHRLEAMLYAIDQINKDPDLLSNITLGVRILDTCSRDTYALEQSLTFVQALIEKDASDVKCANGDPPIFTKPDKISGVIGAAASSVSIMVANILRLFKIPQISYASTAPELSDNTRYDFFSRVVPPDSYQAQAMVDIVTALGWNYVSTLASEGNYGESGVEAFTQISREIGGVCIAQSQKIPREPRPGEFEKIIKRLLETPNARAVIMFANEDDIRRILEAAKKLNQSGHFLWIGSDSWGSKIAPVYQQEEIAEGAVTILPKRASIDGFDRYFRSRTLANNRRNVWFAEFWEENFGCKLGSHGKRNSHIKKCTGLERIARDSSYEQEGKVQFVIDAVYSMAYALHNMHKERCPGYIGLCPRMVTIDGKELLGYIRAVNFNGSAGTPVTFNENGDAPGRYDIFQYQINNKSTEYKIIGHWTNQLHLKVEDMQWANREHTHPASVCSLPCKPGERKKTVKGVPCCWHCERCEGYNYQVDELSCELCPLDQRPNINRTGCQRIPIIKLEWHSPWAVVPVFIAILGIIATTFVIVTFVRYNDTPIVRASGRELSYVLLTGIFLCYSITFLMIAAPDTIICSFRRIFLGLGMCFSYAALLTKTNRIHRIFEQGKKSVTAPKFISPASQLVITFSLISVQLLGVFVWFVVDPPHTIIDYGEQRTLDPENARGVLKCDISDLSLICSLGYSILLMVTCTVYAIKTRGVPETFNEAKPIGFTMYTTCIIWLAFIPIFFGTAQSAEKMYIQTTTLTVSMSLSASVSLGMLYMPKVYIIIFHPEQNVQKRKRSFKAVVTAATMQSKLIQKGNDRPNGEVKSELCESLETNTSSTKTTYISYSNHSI

| Structure (SMILES) | z-score |
| --- | --- |
| Cc1ccc2c(c1)N(Cc1ccncc1)C(=O)C(C)O2 (stereo unspecified) | 0.33 |
| O=C(c1cc([N+](=O)[O-])cc([N+](=O)[O-])c1)N1CCOCC1 | -0.155 |
| O=C(COc1ccc(Cl)cc1Cl)N/N=C/CCc1ccccc1 | -0.096 |
| CCOc1cccc(C2NC(=S)NC(C)=C2C(=O)Nc2ccccc2)c1 (stereo unspecified) | -0.218 |
| CC1=NN(c2ccccc2)C(=O)C1N=Nc1ccccc1 (stereo unspecified) | 0.244 |
| O=S(=O)(Nc1cccnc1)c1cccc(Cl)c1 | -0.26 |
| N#Cc1c(N)oc(-c2cccs2)c1-c1cccs1 | -0.0686 |
| CCOC(=O)N1CCC(n2c(SCC(=O)OCc3ccccc3)nc3ccsc3c2=O)CC1 | -0.557 |
| COc1cccc(/C=C2\N=C3CCCCCN3C2=O)c1 | -0.996 |
| CN(Cc1ccccc1)S(=O)(=O)c1ccc2c(c1)OCCO2 | -0.128 |
| COc1ccc(N(C(=O)Cn2nnc(-c3ccc(Cl)cc3)n2)C(C(=O)NCC2CCCO2)c2ccc(C)cc2)cc1 (stereo unspecified) | -0.126 |
| Cc1nonc1NC(=O)OC1CCCCC1 | 0.0658 |
| O=C(CN1CCN(C(=O)c2ccco2)CC1)Nc1cc(Cl)ccc1Cl | 1.13 |
| COCCN(C(=O)CSc1nnc2cc(C)c3ccccc3n12)c1c(N)n(Cc2ccccc2)c(=O)[nH]c1=O | 0.689 |
| CCCCn1nnnc1NCc1ccc(N(CC)CC)cc1 | 0.144 |
| CC1=N/C(=C/c2ccc([N+](=O)[O-])cc2)C(=O)N1c1ccc(Cl)cc1Cl | 0.0895 |

| Structure (SMILES) | z-score |
| --- | --- |
| CCCCn1c(=O)[nH]c(=O)c2c1nc(-c1ccc(-c3ccccc3Br)o1)n2CC | -0.192 |
| COC(=O)c1ccc(NC(=O)c2ccccc2SC)cc1 | -0.17 |
| Cc1cc(Nc2cnc3ccccc3n2)n(-c2ccccc2)n1 | -0.592 |
| O=C(Nc1nccs1)c1cc2c(s1)CCCCC2 | 0.101 |
| O=C(COC(=O)CCc1c[nH]c(=O)[nH]1)Nc1ccccc1 | -0.115 |
| CCCNC(=O)Nc1ccc2c(c1)N(C)C(=O)c1ccccc1S2 | -0.238 |
| COc1ccc(/C(C)=N/Nc2ccc(C(=O)O)cc2)c(OC)c1 | 0.0316 |
| Fc1ccc(Nc2nc(Oc3ccc4c(c3)OCO4)nc(N3CCOCC3)n2)c(F)c1 | 0.656 |
| Cc1n[nH]c(C)c1S(=O)(=O)NCCc1ccc(Cl)cc1 | -0.418 |
| COc1ccccc1C(CC(=O)Nc1ccc(Cl)cc1)c1ccc(OC(C)C)cc1 (stereo unspecified) | -0.26 |
| N#Cc1ccccc1Sc1ccccc1C(=O)Nc1ccc2ccccc2c1 | 0.199 |
| CCSc1nnc(NC(=O)COc2ccccc2)s1 | 0.00217 |
| Clc1ccccc1CSc1nnc(Cn2cnc3ccccc32)n1-c1ccccc1 | 0.172 |
| Cc1nn(-c2ccccc2)c(C)c1/C=N/NC(=O)CSc1nnc(SCc2ccc(Cl)cc2)s1 | -0.324 |
| Cc1ccc(NC(=S)NCCN2CCOCC2)cc1 | -0.0577 |
